Assay results: PubChem BioAssay AID1460 (National Center for Advancing Translational Sciences (NCATS), 2008)
Among all 270,000 compounds or so, about 5,800 (2.1%) were called active. The shares of active, inactive and inconclusive entries below differ from those in the screen. Calls follow the shape of the dose curve; as a rule, active = well fitted inhibition curve with a large enough effect; inconclusive = small, poorly fitted or top-dose-only effect; inactive = flat fitted curve, though single readings scatter. Potencies of inconclusive entries are doubtful fits and often do not repeat.

The molecules below were run against Microtubule-associated protein tau (Homo sapiens) (UniProt P10636) (assay: qHTS for Inhibitors of Tau Fibril Formation, Thioflavin T Binding). Conditions: recombinant tau K18 P301L, heparin-induced fibrillization, ThT fluorescence; series mostly up to 57.4 µM; activity, negative = inhibition: at the top concentration.
Chain of UniProt P10636 (P10636 whole entry, looked up): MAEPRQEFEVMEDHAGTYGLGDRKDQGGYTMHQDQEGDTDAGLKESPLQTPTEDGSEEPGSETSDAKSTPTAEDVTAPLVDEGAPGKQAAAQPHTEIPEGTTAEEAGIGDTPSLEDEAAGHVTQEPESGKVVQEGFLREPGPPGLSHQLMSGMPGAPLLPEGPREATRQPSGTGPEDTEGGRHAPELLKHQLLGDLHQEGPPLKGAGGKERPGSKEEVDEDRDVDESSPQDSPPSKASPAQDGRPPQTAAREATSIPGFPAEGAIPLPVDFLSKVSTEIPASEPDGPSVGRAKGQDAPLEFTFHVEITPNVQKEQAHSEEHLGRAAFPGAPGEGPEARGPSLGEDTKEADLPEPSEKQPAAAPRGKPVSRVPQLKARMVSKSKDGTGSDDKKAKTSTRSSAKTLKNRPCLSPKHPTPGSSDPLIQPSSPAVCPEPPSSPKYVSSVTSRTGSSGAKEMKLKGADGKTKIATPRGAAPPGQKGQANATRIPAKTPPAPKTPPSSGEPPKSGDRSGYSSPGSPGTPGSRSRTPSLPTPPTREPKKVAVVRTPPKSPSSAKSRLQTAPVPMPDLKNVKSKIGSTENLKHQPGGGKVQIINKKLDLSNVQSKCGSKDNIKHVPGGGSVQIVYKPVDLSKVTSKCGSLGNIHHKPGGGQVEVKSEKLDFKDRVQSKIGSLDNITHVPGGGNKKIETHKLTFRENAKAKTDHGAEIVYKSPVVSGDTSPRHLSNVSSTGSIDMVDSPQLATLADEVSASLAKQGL
Method in brief: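 ThT emission at 510 nm, taken 1 hr after adding 30 uM dye, quantifies aggregates formed when 20 uM heparin acts on human tau K18 P301L for 6 hr at 37 C.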
% is scaled to controls: 0 for no effect and ±100 for the full control effect; potency is read from the fitted curve at half-maximal effect; tags tell the direction and shape of the fitted curve.
Also: nearly all actives have a fitted effect of over 55% in size.

| Compound | Potency | activity, negative = inhibition |
| --- | --- | --- |
| COc1cc(C(=S)N2CCOCC2)cc(OC)c1OC(=O)c1cc([N+](=O)[O-])cc([N+](=O)[O-])c1 | inconclusive: 11.2 µM [inhibitor, partial curve] | – |
| O=S(=O)(NCc1csc(-c2cccs2)n1)c1ccc(Cl)cc1 | inconclusive: 31.6 µM [inhibitor, single point] | – |
| COc1ccc(/C(O)=C2/C(=O)C(=O)N(CCN3CCOCC3)C2c2ccccn2)cc1OC (centres undefined) | inconclusive: 31.6 µM [inhibitor, partial curve] | – |
| C=CCn1c(C)cc(C(=O)COc2ccc(C)nc2[N+](=O)[O-])c1C | inconclusive: 22.4 µM [inhibitor, partial curve] | – |
| Cc1c(C(=O)NN2CCOCC2)nn(-c2ccc(Cl)cc2Cl)c1-c1ccc(I)cc1 | inconclusive: 35.5 µM [inhibitor, single point] | – |
| Cc1cc(C)cc(NC(=S)N(Cc2ccc(Cl)cc2)Cc2ccc(C(=O)O)cc2)c1 | – | inactive: -13.3% |
| COC(=O)c1ccc(NC(=O)CSCc2ccccc2C)cc1 | inconclusive: 35.5 µM [inhibitor, partial curve] | – |
| CC1CCC(C(C)C)C(OC(=O)CSc2nccc(=O)[nH]2)C1 (centres undefined) | – | inactive: 1.53% |
| O=C(NC1CCCCC1)c1ccc(CSc2nc3cccnc3n2Cc2ccc(F)cc2)cc1 | – | inactive: 5.31% |
| CCC(=O)N1CCN(c2ccc(NC(=O)c3cc4ccccc4o3)cc2Cl)CC1 | inconclusive: 7.94 µM [inhibitor, partial curve] | – |
| COC1CC(C)NC(=S)N1 (centres undefined) | – | inactive: 11% |
| COC(=O)C1=C(C)N(CCCC(=O)O)C(=O)NC1c1cc2c(cc1[N+](=O)[O-])OCO2 (centres undefined) | inconclusive: 25.1 µM [inhibitor, partial curve] | – |
| C=Cc1ccc(Cn2nc(-c3ccc(C)cc3)ccc2=O)cc1 | inconclusive: 15.8 µM [inhibitor, partial curve, poor fit] | – |
| CCOC(=O)c1c(NC(=O)c2ccc(S(=O)(=O)N3CCC(C)CC3)cc2)sc2c1CCN(CC)C2 | – | inactive: -9.16% |
| CSc1ccc(C(=O)C2CCCN(C(=O)c3ccsc3)C2)cc1 (centres undefined) | – | inactive: -15.4% |
| CCN=c1scc(C)n1/N=C/c1cc(Br)c(O)c(Br)c1 | inconclusive: 15.8 µM [inhibitor, partial curve] | – |
| CCC1c2ccc(C)n2CCN1C(=O)Nc1ccccc1C(=O)OC (centres undefined) | inconclusive: 35.5 µM [inhibitor, single point] | – |
| Cc1nc(-n2nnc3ccccc32)c2c3c(sc2n1)CCCC3 | inconclusive: 15.8 µM [inhibitor, single point] | – |
| CCN(CC)S(=O)(=O)c1ccc(Cl)c(C(=O)Nc2ccc(Cl)cc2[N+](=O)[O-])c1 | inconclusive: 44.7 µM [inhibitor, single point] | – |
